From PMC4336329 (PLoS ONE, 2015)
About 14,000 (4.5%) of roughly 310,000 compounds showed an effect of 50% or more. Effects have a minus sign here. Some of the results follow.

Biological target: human ether-à-go-go-related gene (hERG) potassium channel (human, UniProt Q12809)
Experiment: primary screen, population patch clamp on CHO cells stably expressing hERG
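Note: peak tail current of the secondary pulse compared with the same well before compound.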

Chain of human ether-à-go-go-related gene (hERG) potassium channel (Q12809 whole entry, looked up): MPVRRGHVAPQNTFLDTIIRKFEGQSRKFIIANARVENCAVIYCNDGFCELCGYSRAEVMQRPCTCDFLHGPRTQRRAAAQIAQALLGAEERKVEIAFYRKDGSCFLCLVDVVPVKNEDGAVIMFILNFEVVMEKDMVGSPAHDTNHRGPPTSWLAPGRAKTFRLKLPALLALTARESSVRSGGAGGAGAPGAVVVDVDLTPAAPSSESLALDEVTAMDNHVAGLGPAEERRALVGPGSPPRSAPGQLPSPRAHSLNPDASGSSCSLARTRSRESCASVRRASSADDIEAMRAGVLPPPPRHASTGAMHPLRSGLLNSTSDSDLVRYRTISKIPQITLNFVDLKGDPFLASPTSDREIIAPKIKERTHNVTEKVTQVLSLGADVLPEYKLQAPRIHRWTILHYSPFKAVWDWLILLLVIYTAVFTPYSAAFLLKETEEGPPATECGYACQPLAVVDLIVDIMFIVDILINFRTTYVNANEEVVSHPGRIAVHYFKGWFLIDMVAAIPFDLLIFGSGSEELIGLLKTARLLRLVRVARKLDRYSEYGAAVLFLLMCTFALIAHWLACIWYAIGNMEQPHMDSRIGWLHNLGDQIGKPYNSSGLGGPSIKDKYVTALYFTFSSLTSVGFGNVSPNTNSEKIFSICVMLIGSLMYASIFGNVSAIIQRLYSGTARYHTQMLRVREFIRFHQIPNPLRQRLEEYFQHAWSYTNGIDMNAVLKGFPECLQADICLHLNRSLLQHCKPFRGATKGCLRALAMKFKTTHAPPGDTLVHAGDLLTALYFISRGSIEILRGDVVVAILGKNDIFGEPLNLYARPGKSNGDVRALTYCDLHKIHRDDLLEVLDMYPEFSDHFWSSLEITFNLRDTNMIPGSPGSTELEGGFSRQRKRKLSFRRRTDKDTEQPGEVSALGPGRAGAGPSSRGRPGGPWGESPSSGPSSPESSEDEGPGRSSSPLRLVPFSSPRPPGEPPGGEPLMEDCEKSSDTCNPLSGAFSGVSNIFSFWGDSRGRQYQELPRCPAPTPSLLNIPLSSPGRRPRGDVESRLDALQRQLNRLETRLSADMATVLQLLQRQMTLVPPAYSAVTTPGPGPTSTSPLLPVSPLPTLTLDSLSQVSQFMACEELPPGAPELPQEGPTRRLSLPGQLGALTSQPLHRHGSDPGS

| SMILES | hERG current change (%, negative = inhibition) at 10uM |
| --- | --- |
| O=C1c2ccccc2NC(c2ccc(-c3cccc(F)c3)o2)N1O (stereo not shown) | 0.38% |
| Cc1ccc(-n2c(C)nnc2SCC(=O)N2CCc3ccccc3C2)cc1 | -53.3% |
| CCOc1ccc(NC(=O)Cn2c(=O)oc3ccccc32)cc1 | 4.89% |
| COc1ccc(Cl)cc1-c1n[nH]c(=S)n1C | 0.65% |
| O=C(CCSCc1ccccc1Cl)NCc1cccs1 | -22.4% |
| Nc1ccncc1N | 21.9% |
| CC(=O)Nc1ccc(S(=O)(=O)NNC(=O)c2ccc3c(c2)OCO3)cc1 | 15.1% |
| CC1CC(C)CN(S(=O)(=O)c2ccc(NC(=O)CCNC(=O)c3ccc([N+](=O)[O-])cc3)cc2)C1 (stereo not shown) | -2.29% |
| c1cnc2c(C3NCCc4c3[nH]c3ccccc43)cccc2c1 (stereo not shown) | -36% |
| CCOC(=O)C1CCCN(C(=O)Cn2cnc3sc(C)c(S(=O)(=O)N4CCOCC4)c3c2=O)C1 (stereo not shown) | -3.33% |
| O=C(O)C1CCCCC1C(=O)NCc1cn2ccccc2n1 (stereo not shown) | 20.2% |
| Cc1cc(-c2nnc(SCC(=O)Nc3ccc(F)cc3)n2N)n[nH]1 | 9.53% |
| CC(=O)NC12CC3CC(C1)CC(C(=O)N1CCN(C(=O)c4ccco4)CC1)(C3)C2 | -15.1% |
| Cc1cc(C(=O)COC(=O)c2ccncc2)c(C)n1Cc1ccco1 | 13.7% |
| Cc1noc(C(=O)Nc2ccc(F)c(Cl)c2)c1Cl | 8.86% |
| Cl.Oc1ccc(Nc2nc(N3CCCC3)c3ccccc3n2)cc1 | -70.2% |
| CCCCNc1ncnc2c1cnn2-c1ccccc1 | -20.8% |
| Cc1ccc(C(NC(=O)Nc2ccccn2)C(Cl)(Cl)Cl)cc1F (stereo not shown) | 24.1% |
| CC(CCc1ccccc1)NC(=O)CCC(=O)N1CCC(C(N)=O)CC1 (stereo not shown) | 13.8% |
| COc1ccc(N2CCN(C(CNC(=O)c3ccco3)c3ccco3)CC2)cc1 (stereo not shown) | -6.08% |
| Cc1cccc(CCNC(=O)C2CCC(=O)N(Cc3ccccc3F)C2)n1 (stereo not shown) | 12.2% |
| CC1=C(C(=O)OCc2ccccc2)C(c2ccccc2Cl)NC(=O)N1C (stereo not shown) | -11.9% |
| CC1=NN(c2ccccc2)C(=O)C1/C=C1/NC(=S)NC1=O (stereo not shown) | 16% |
| COc1ccc(NC(=O)CSc2nn3c(=O)c(C)nnc3s2)cc1 | 13.1% |
| O=[N+]([O-])c1ccc(CSC2=NCCS2)cc1 | -15.3% |
| COc1ccc(/C=C2\SC(=O)N(CCNC(=O)CCS(=O)(=O)c3ccc(C)cc3)C2=O)cc1 | -0.333% |
| COc1ccc(N(CC(=O)Nc2nc3ccc(C)cc3s2)S(=O)(=O)c2c(C)nn(C)c2C)cc1 | -16.7% |
| CC(C)(C)NC(=O)NCc1ccco1 | 8.48% |

| SMILES | hERG current change (%, negative = inhibition) at 10uM |
| --- | --- |
| CCCCN(CCCNC(=O)CN1C(=O)COc2ccc(S(=O)(=O)N3CCC(C)CC3)cc21)Cc1ccccc1 | -76.6% |
| CC(NCCc1ccc(S(N)(=O)=O)cc1)C(=O)NCc1ccccc1.O=C(O)C(=O)O (stereo not shown) | -37.5% |
| NC(=O)c1cc([N+](=O)[O-])c(Cl)cc1NCc1ccccn1 | -22.5% |
| CCOC(=O)C1=C(C)N(CC(C)C)C(=O)/C1=C\c1ccc(OCC(=O)Nc2ccccc2)cc1 | -9.9% |
| CCCCn1c(N)c(N(CCC(C)C)C(=O)c2ccc3ccccc3c2)c(=O)[nH]c1=O | 25% |
| CCOc1cc(C)c(C(C)C)cc1S(=O)(=O)N1CC(C)OC(C)C1 (stereo not shown) | -4.66% |
| COc1ccc(C(=O)NCC(=O)OCC(=O)NCc2cccs2)cc1 | 10.9% |
| Cc1ccc(Nc2ncccc2C(=O)O)cc1C | 7.47% |
| Cc1cc(C)c2nc(N3CCCC(C(=O)NC4CCCC4)C3)sc2c1 (stereo not shown) | 6.33% |
| CCN(CC)S(=O)(=O)c1cc(NC(=O)CO/N=C(\N)c2ccccc2Cl)ccc1C | -19.8% |
| CN(C)S(=O)(=O)c1ccc(-c2csc(N/N=C/c3ccc(O)cc3)n2)cc1 | -0.953% |
| Cl.Fc1ccc(CN2C3=NCCN3c3ccccc32)cc1 | -54.9% |
| Cc1c(NC(=O)CSc2ncnc3c2cnn3-c2ccccc2)c(=O)n(-c2ccccc2)n1C | -64.1% |
| COc1ccc(-n2nc3c(c2NC(=O)C2CC2)CS(=O)C3)cc1 (stereo not shown) | 5.03% |
| CCN1CCN(Cc2c(C(=O)N/N=C(\C)c3ccc(Cl)c(Cl)c3)nnn2-c2nonc2N)CC1.Cl | -17.4% |
| O=C(Cc1c(F)cccc1Cl)Nc1nccs1 | 8.07% |
| O=C(CSc1ccccc1)Nc1cccc(S(=O)(=O)N2CCOCC2)c1 | -25.4% |
| O=C(NCC1CCCO1)C1CC(=O)N(c2ccc(F)c(Cl)c2)C1 (stereo not shown) | 2.29% |
| O=C(CCN1C(=O)[C@@H]2Cc3ccccc3CN2C1=O)N[C@H](C(=O)O)c1ccccc1 | 20.9% |
| Cc1ccc(C(=O)OCC(=O)c2ccc(S(=O)(=O)N3CCCCC3)cc2)o1 | -20.3% |
| CCN(CC(=O)NCc1ccc(Cl)cc1)C(=O)c1oc2ccccc2c1C | -54.5% |
| CC1CCN(c2ccc3nnc(CCC(=O)NCC(C)c4ccccc4)n3n2)CC1 (stereo not shown) | -49.2% |
| Nc1cccc2c1C(=O)N(CCOc1ccccc1F)C2=O | 20.2% |
| O=C(Nc1ccc(S(=O)(=O)N2CCCCC2)cc1)C1CCCO1 (stereo not shown) | 1.13% |
| Cn1c(C(=O)NCc2ccco2)cc2c(=O)[nH]c3ccccc3c21 | -5.19% |
| CCN(C1CCS(=O)(=O)C1)S(=O)(=O)c1cccc([N+](=O)[O-])c1 (stereo not shown) | -3.02% |
| CCCCC(Sc1nc(N)c(NC(=O)c2ccc(OC)cc2)c(=O)[nH]1)C(=O)O (stereo not shown) | 13.5% |
